Measured values taken from PubChem BioAssay AID463173 (ICCB-Longwood Screening Facility, Harvard Medical School, 2010).
Out of some 52,000 compounds screened, about 1,700 (3.3%) were called active. No stated cut-off is given here; in the data, active means survival mostly below about 52% (no sharp cut-off); inactive means mostly above about 56%. This is one part of the list.

tested on: Wild type; assay: growth inhibition of S. aureus wild type versus tarO mutant, primary screen, teichoic acid synthesis inhibitors, RN4220, OD600 (AID 463173); details: S. aureus RN4220 wild type/DeltatarO growth, OD600, 18 h, hits give low values; concentration not given here unless noted

Row | Compound | survival
1 | Cc1cccc(-n2c(/C=C/c3c[nH]c4ccccc34)nc3ccccc3c2=O)c1 | inactive: 20%
2 | COc1ccc(-c2nc(CN3C(=O)CN=C(c4ccccc4)c4ccccc43)c(C)o2)cc1 | inactive: 93%
3 | CN(C)c1ccc(/C=C2/C(=O)C3CCN2CC3)cc1 | inactive: 104%
4 | COc1ccc(C2(CN)CCOCC2)cc1 | inactive: 95%
5 | COc1ccc(C=C2C(=O)N(C)C(=O)N(C)C2=O)cc1 | inactive: 98%
6 | Cc1cc(NC(=O)c2cccn(Cc3ccccc3)c2=O)no1 | inactive: 72%
7 | CCCC1=Nc2cc(C(=O)NC3CCC(C)CC3)ccc2Sc2ccccc21 (stereo unspecified) | inactive: 40%
8 | O=C(CN1C(=O)CN=C(c2ccccc2)c2ccccc21)Nc1cccc(C(F)(F)F)c1 | inactive: 48%
9 | Cc1cccc2sc(NC(=O)c3cccn(Cc4ccccc4)c3=O)nc12 | inactive: 78%
10 | CN1CCc2c(C#N)c(N)n(N)c(=S)c2C1 | inactive: 96%
11 | N#CC(C#N)=Cc1ccc(Sc2ccccc2)o1 | inactive: 107%
12 | CC(C)n1cc(C(=O)N(C2CC2)C(C(=O)NC2CCCC2)c2ccccc2)cn1 (stereo unspecified) | inactive: 101%
13 | CNCCCc1ccccc1 | inactive: 106%
14 | CC(N)Cc1cn(Cc2ccccc2)c2ccccc12 (stereo unspecified) | inactive: 120%
15 | Nc1c(C(=O)Nc2cccc(Br)c2)sc2nc3c(cc12)N1CCC3CC1 | inactive: 63%
16 | c1cncc(C2CCCCN2Cc2ccc3c(c2)OCO3)c1 (stereo unspecified) | inactive: 111%
17 | c1coc(CN2CCNCC2)c1 | inactive: 106%
18 | COC1CCCCC1NC1CCCC1 (stereo unspecified) | inactive: 92%
19 | CN1CCc2c(C#N)c(Cl)nc(NCc3ccccc3)c2C1 | inactive: 103%
20 | O=C1C2CN3CN(C2)CC1(c1ccccc1)C3 | inactive: 105%
21 | CCOc1ccc(CN(CCc2ccc3c(c2)OCO3)Cc2cccc(C)c2)cc1 | inactive: 40%
22 | Cc1cc(OCC(=O)N2CCN(CCc3ccccn3)CC2)cc(C)c1Cl | inactive: 80%
23 | CCOC(=O)C1=C(C)OC(N)=C(C#N)C12C(=O)N1c3c(cccc32)C(C)CC1(C)C (stereo unspecified) | inactive: 126%
24 | OCCCCNC1CCCCC1 | inactive: 98%
25 | CCN(CC)C(=O)c1ccc(NC(=O)CCn2nc(-c3ccc(C)cc3)c3ccccc3c2=O)cc1 | inactive: 64%
26 | Cc1cccc(C2CC(=O)Oc3c2c(=O)oc2ccccc32)c1 (stereo unspecified) | inactive: 144%

Row | Compound | survival
27 | COc1ccc(CN2CCN(C(=O)COc3ccccc3)CC2)c(OC)c1 | inactive: 151%
28 | CC(c1ccccc1)n1cncc1C(=O)N1CCCC1=O (stereo unspecified) | inactive: 103%
29 | CCN(CC)C(=O)c1ccc(NC(=O)CCn2nc(-c3ccc(Cl)cc3)c3ccccc3c2=O)cc1 | inactive: 66%
30 | CN1C(=O)C(Cc2cccs2)C(=O)N(C)C1=O | inactive: 107%
31 | O=C1NC(=S)NC(=O)C1C1CCCCC1 | inactive: 99%
32 | CC(C)C(=O)c1cn(Cc2ccccc2C#N)c2ccccc12 | inactive: 115%
33 | COC(=O)c1ccc(NC(=O)c2cccn(Cc3ccccc3C)c2=O)cc1 | inactive: 88%
34 | O=S1(=O)N(Cc2ccccc2)CCCN1Cc1ccc(F)cc1Cl | inactive: 76%
35 | Cc1ccc(OCC(=O)Nc2ccc(Cl)cc2C(=O)c2ccccc2)cc1 | inactive: 64%
36 | O=C(Nc1ccc(Br)cc1C(=O)c1ccccc1)c1ccccc1 | active: -1%
37 | CCN(CC)Cc1c[nH]c2ccccc12 | inactive: 105%
38 | CC1CC2(O)c3no[n+]([O-])c3CCC2N1O (stereo unspecified) | inactive: 109%
39 | CCOC(=O)c1ccc(NC(=O)c2sc3nc4c(cc3c2N)N2CCC4CC2)cc1 | inactive: 84%
40 | COc1ccc(OCC(=O)N2CCN(Cc3cccc(OC)c3OC)CC2)cc1 | inactive: 135%
41 | Cc1cc(C)cc(OCC(=O)Nc2ccc(Cl)cc2C(=O)c2ccccc2)c1 | inactive: 73%
42 | C1CNC2NCCNC2N1 (stereo unspecified) | inactive: 125%
43 | Nc1nonc1C1=NOC(c2nonc2N)=NO1 | inactive: 98%
44 | Cc1n[nH]c(C)c1CCN | inactive: 108%
45 | CCCCCn1c(=O)c(C(=O)Nc2ccccc2S(N)(=O)=O)c(O)c2ccccc21 | active: 0%
46 | COc1ccccc1NC(=O)N(Cc1ccc2c(c1)OCO2)C1CCN(Cc2ccccc2)CC1 | inactive: 78%
47 | Cc1cc(N)n(C2CCN(C)CC2)n1 | inactive: 103%
48 | Cc1cccc(-n2c(/C=C/c3c(C)[nH]c4ccccc34)nc3ccccc3c2=O)c1 | inactive: 108%
49 | Nc1c(C(=O)Nc2ccc(Br)cc2F)sc2nc3c(cc12)N1CCC3CC1 | inactive: 134%
50 | COc1cc(C(c2c(O)c3ccccc3oc2=O)c2c(C)n(C)n(-c3ccccc3)c2=O)ccc1OCC(=O)O (stereo unspecified) | inactive: 95%
51 | O=C(Nc1ccc(Cl)cc1C(=O)c1ccccc1)c1ccccc1Br | active: 5%
52 | N#CC(C#N)=Cc1cc(Br)cs1 | inactive: 94%

Row | Compound | survival
53 | Cc1c(Cl)cccc1NC(=O)CN1C(=O)C(C)N=C(c2ccccc2)c2ccccc21 (stereo unspecified) | inactive: 93%
54 | O=C(CN1CCCC1=O)NCCc1ccccc1 | inactive: 101%
55 | O=C(c1ccc2ccccc2c1)C12CN3CN(CN(C3)C1)C2 | inactive: 86%
56 | Cn1cc(/C=C/c2nc3ccccc3c(=O)n2-c2ccccc2)c2ccccc21 | inactive: 72%
57 | O=C(Nc1ccc2c(c1)OCO2)c1cccn(Cc2cccc(F)c2)c1=O | inactive: 72%
58 | Nc1c(C(=O)Nc2ccc(Cl)cc2)sc2nc3c(cc12)N1CCC3CC1 | inactive: 95%
59 | COc1cc(C(c2c(O)c3ccccc3oc2=O)c2c(C)n(C)n(-c3ccccc3)c2=O)ccc1O (stereo unspecified) | inactive: 62%
60 | CC1=CC(=O)C2=C(C)CC(O)C3C(C)C(=O)OC3C12 (stereo unspecified) | inactive: 117%
61 | CN1CCN(c2oc(-c3ccc(COc4ccccc4)o3)nc2C#N)CC1 | inactive: 72%
62 | O=c1c2ccccc2nc(/C=C/c2ccccc2)n1-c1ccccc1F | inactive: 97%
63 | Cc1nnc(NC(=O)c2cccn(Cc3cccc(Cl)c3)c2=O)s1 | inactive: 70%
64 | COc1ccc(CN2C(=O)CC(=O)NC2=S)cc1 | inactive: 107%
65 | Cc1cccc(CSc2nc3c(cc2C#N)CN(C)CC3)c1 | inactive: 114%
66 | CCCC12CN3CC(CCC)(CN(C1)C3c1ccccn1)C2=O (stereo unspecified) | inactive: 84%
67 | N#CC(C#N)=Cc1ccc(N2CCCC2)cc1 | inactive: 106%
68 | c1cc(C2CCNCC2)ccn1 | inactive: 104%
69 | COc1cccc(/C=C/c2nc3ccccc3c(=O)n2-c2ccc(Cl)cc2)c1OC | inactive: 69%
70 | Cc1ccc(-n2c(/C=C/c3cccs3)nc3ccccc3c2=O)cc1C | inactive: 99%
71 | C=CCN1C(=O)CN=C(c2cccs2)c2c1sc1c2CCC1 | inactive: 112%
72 | COc1ccc(C)cc1NC(=O)c1cccn(Cc2cccc([N+](=O)[O-])c2)c1=O | inactive: 93%
73 | CN1C2CCC1CC(OC(=O)C1(c3ccccc3)CCCC1)C2 (stereo unspecified) | inactive: 103%
74 | CSc1ccc(CN2CCN(C(=O)COc3ccc(C)cc3)CC2)cc1 | inactive: 65%
75 | CCOc1ccc2nc(NC(=O)c3cccn(Cc4ccccc4)c3=O)sc2c1 | inactive: 69%
76 | CN1CCc2nc3sc4c(=O)[nH]c(=O)[nH]c4c3cc2C1 | inactive: 107%
77 | CN1CCN(C2CC3(C)C(CCC4C3CCC3(C)C(O)C(N5CCN(C)CC5)CC43)CC2O)CC1 (stereo unspecified) | inactive: 99%
78 | COc1ccc(OC)c(NC(=O)Cn2cc(C(=O)c3ccccc3)c3ccccc32)c1 | inactive: 78%

Row | Compound | survival
79 | O=C(Nc1ccc(Cl)cc1C(=O)c1ccccc1)c1cc(Cl)cc(Cl)c1 | inactive: 140%
80 | CN1CCCC1c1ccc(N)nc1 (stereo unspecified) | inactive: 108%
81 | COc1ccc(OC)c(/C=C2\C(=O)C3CCN2CC3)c1 | inactive: 116%
82 | CCOc1ccc2nc(NC(=O)c3cccn(Cc4ccc(Cl)cc4)c3=O)sc2c1 | inactive: 63%
83 | COc1ccc(-c2nc(CN3C(=O)CN=C(c4ccccc4)c4cc(Cl)ccc43)c(C)o2)cc1 | inactive: 73%
84 | O=C(Nc1ccc2c(c1)OCCO2)c1cccn(Cc2cccc(F)c2)c1=O | inactive: 82%
85 | CCc1ccccc1NC(=O)c1cccn(Cc2ccccc2F)c1=O | inactive: 60%
86 | COc1ccc(NC(C)=O)cc1NC(=O)c1cccn(Cc2ccccc2)c1=O | inactive: 59%
87 | CCOC(=O)C1C2NC(=S)NC1(C)Oc1ccccc12 (stereo unspecified) | inactive: 104%
88 | CC(C)C(=O)N1N=C(c2cccnc2)CC1(O)C(F)(F)F (stereo unspecified) | inactive: 112%
89 | N#Cc1cccc(NC(=O)CSc2nc3c(cc2C#N)N2CCC3CC2)c1 | inactive: 76%
90 | Cc1nnc(NC(=O)c2cccn(Cc3cccc([N+](=O)[O-])c3)c2=O)s1 | inactive: 83%
91 | CC(=O)NC1CC2CCC(C1)N2 (stereo unspecified) | inactive: 94%
92 | O=c1c2ccccc2nc(-c2ccccc2)n1-c1ccccn1 | inactive: 96%
93 | CC1(C)C(C(=O)Nc2cc(Cl)ccn2)C1(C)C | inactive: 124%
94 | Cc1ccccc1-n1c(/C=C/c2ccc(O)cc2)nc2ccccc2c1=O | inactive: 48%
95 | CC(C)(C)c1ccc(OCC(=O)Nc2ccc(Cl)cc2C(=O)c2ccccc2)cc1 | inactive: 63%
96 | CCOc1ccccc1CN(CCc1ccc2c(c1)OCO2)Cc1ccc(CC)cc1 | inactive: 50%
97 | CSc1ncc(C(=O)Nc2ccc(Cl)cc2C(=O)c2ccccc2)c(C)n1 | inactive: 88%
98 | O=c1cccc2n1CC1CC2CN(c2nc(Cl)nc(Cl)n2)C1 (stereo unspecified) | inactive: 103%
99 | CCN(CC)C(=O)c1ccc(NC(=O)Cn2nc(-c3ccc(C)cc3)c3ccccc3c2=O)cc1 | inactive: 80%
100 | Cc1ccc(Cn2cccc(C(=O)Nc3nnc(C)s3)c2=O)cc1 | inactive: 84%
101 | CCOC(=O)c1ccc(NC(=O)c2cccn(Cc3ccc(C)cc3)c2=O)cc1 | inactive: 73%
